The IC50 comes from the fitted curve, where viability falls to half of the control; a limit (>, <) means that the fit lies beyond the doses tested. For AUC the same curve is integrated over the 256-fold range of doses and scaled to a fraction; it is 1 without any effect and falls as sensitivity rises. For part of these data: An inferred top dose comes from the curve model; the source does not state it. For part of these data: An entry number marks a drug with two screens in the source, which often give different values.
Columns and labels:
Test in all cases: Viability of human cancer cell lines after 72 h of drug (GDSC screen)
LFM-A13 = compound: C/C(O)=C(\C#N)C(=O)Nc1cc(Br)ccc1Br [LFM-A13]; conditions: top dose 16 µM; top dose inferred
Experimental: (§1)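 Human cancer cell lines in 384-well plates, medium with 10% serum, drug for 72 h over a 256-fold dose range (nine 2-fold or five 4-fold steps up to the top dose). Adherent lines were fixed and stained with the nucleic acid dye Syto60, suspension lines read with resazurin; signal relative to control wells, capped at 0 and 100%. One two-parameter sigmoid per drug and line, fitted in a mixed model over all curves with the slope shared within a line.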

Bicalutamide = compound: CC(O)(CS(=O)(=O)c1ccc(F)cc1)C(=O)Nc1ccc(C#N)c(C(F)(F)F)c1 [Bicalutamide]; conditions: top dose inferred
Experimental: as §1

AUY922 = compound: CCNC(=O)c1noc(-c2cc(C(C)C)c(O)cc2O)c1-c1ccc(CN2CCOCC2)cc1 [AUY922]; conditions: top dose 0.256 µM; top dose inferred
Experimental: as §1

KIN001-270 = compound: Cc1ccc(Nc2cc(-c3cccc(N4C(=O)c5ccccc5C4=O)c3)ncn2)cc1NS(C)(=O)=O [KIN001-270]; conditions: top dose 20 µM; top dose inferred
Experimental: as §1

Nilotinib = compound: Cc1cn(-c2cc(NC(=O)c3ccc(C)c(Nc4nccc(-c5cccnc5)n4)c3)cc(C(F)(F)F)c2)cn1 [Nilotinib]; conditions: top dose 2 µM
Experimental: as §1

GNF-2 = compound: NC(=O)c1cccc(-c2cc(Nc3ccc(OC(F)(F)F)cc3)ncn2)c1 [GNF-2]; conditions: top dose 1.28 µM; top dose inferred
Experimental: as §1

Gemcitabine = compound: Nc1ccn([C@@H]2O[C@H](CO)[C@@H](O)C2(F)F)c(=O)n1 [Gemcitabine]; conditions: top dose 1.024 µM
Experimental: as §1

T0901317 = compound: O=S(=O)(c1ccccc1)N(CC(F)(F)F)c1ccc(C(O)(C(F)(F)F)C(F)(F)F)cc1 [T0901317]; conditions: top dose 10.24 µM; top dose inferred
Experimental: as §1

MP470 = compound: S=C(NCc1ccc2c(c1)OCO2)N1CCN(c2ncnc3c2oc2ccccc23)CC1 [MP470]; conditions: top dose 20 µM; top dose inferred
Experimental: as §1

TW-37 = compound: CC(C)c1ccccc1Cc1cc(C(=O)Nc2ccc(S(=O)(=O)c3ccccc3C(C)(C)C)cc2)c(O)c(O)c1O [TW-37]; conditions: top dose 5 µM
Experimental: as §1

[1] = top dose 1.024 µM, screen: GDSC drug entry 150
[2] = top dose 10 µM, screen: GDSC drug entry 1502

| Cell Line | AUC (LFM-A13) | IC50 (LFM-A13) [nM] | AUC (Bicalutamide; [1]) | IC50 (Bicalutamide; [1]) [nM] | AUC (Bicalutamide; [2]) | IC50 (Bicalutamide; [2]) [nM] | AUC (AUY922) | IC50 (AUY922) [nM] | AUC (KIN001-270) | IC50 (KIN001-270) [nM] | AUC (Nilotinib) | IC50 (Nilotinib) [nM] | AUC (GNF-2) | IC50 (GNF-2) [nM] | AUC (Gemcitabine) | IC50 (Gemcitabine) [nM] | AUC (T0901317) | IC50 (T0901317) [nM] | AUC (MP470) | IC50 (MP470) [nM] | AUC (TW-37) | IC50 (TW-37) [nM] |
| --- | --- | --- | --- | --- | --- | --- | --- | --- | --- | --- | --- | --- | --- | --- | --- | --- | --- | --- | --- | --- | --- | --- |
| ALL-SIL (T-cell leukaemia, suspension) | 0.933 | > 16000 | 0.987 | > 1020 | 0.984 | > 10000 | 0.546 | 20.9 | 0.927 | > 20000 | 0.037 | < 7.81 | 0.599 | 144 | 0.218 | 11.2 | 0.955 | > 10200 | 0.92 | > 20000 | – | – |
| DOHH-2 (B-cell lymphoma, suspension) | 0.978 | > 16000 | 0.984 | > 1020 | – | – | 0.601 | 30.1 | – | – | 0.986 | > 2000 | 0.986 | > 1280 | 0.463 | 51 | – | – | – | – | – | – |
| VCaP (prostate, adherent) | 0.981 | > 16000 | – | – | – | – | 0.753 | 88.3 | 0.987 | > 20000 | 0.987 | > 2000 | 0.987 | > 1280 | – | – | 0.987 | > 10200 | 0.926 | > 20000 | 0.708 | 1240 |
| LS-123 (large intestine, adherent) | 0.945 | > 16000 | 0.982 | > 1020 | 0.957 | > 10000 | 0.556 | 23.9 | 0.959 | > 20000 | 0.977 | > 2000 | 0.953 | > 1280 | 0.444 | 42.8 | 0.981 | > 10200 | 0.921 | > 20000 | – | – |
| MC116 (B-cell lymphoma, suspension) | 0.999 | > 16000 | 0.999 | > 1020 | 0.998 | > 10000 | 0.573 | 24 | 0.915 | 13100 | 0.999 | > 2000 | 0.999 | > 1280 | – | – | 0.997 | > 10200 | 0.926 | 14100 | 0.491 | 298 |
| SJSA-1 (bone, adherent) | 0.961 | > 16000 | 0.984 | > 1020 | 0.977 | > 10000 | 0.497 | 15.7 | 0.955 | > 20000 | 0.983 | > 2000 | 0.984 | > 1280 | – | – | 0.982 | > 10200 | 0.969 | > 20000 | 0.52 | 357 |
| SK-PN-DW (Ewing sarcoma, adherent) | 0.944 | > 16000 | 0.98 | > 1020 | 0.964 | > 10000 | 0.532 | 19.6 | 0.945 | > 20000 | 0.839 | 1440 | 0.984 | > 1280 | 0.06 | < 4 | 0.939 | > 10200 | 0.852 | 16400 | – | – |
| COLO-824 (breast, adherent) | 0.954 | > 16000 | 0.988 | > 1020 | 0.986 | > 10000 | 0.697 | 57.9 | 0.98 | > 20000 | 0.982 | > 2000 | 0.987 | > 1280 | 0.963 | > 1020 | 0.949 | > 10200 | 0.909 | > 20000 | – | – |
| BT-474 (breast, adherent) | 0.975 | > 16000 | 0.986 | > 1020 | 0.977 | > 10000 | – | – | 0.951 | > 20000 | 0.986 | > 2000 | 0.986 | > 1280 | – | – | 0.984 | > 10200 | 0.809 | 12000 | 0.831 | 3710 |
| P30-OHK (lymphoblastic leukaemia, suspension) | 0.964 | > 16000 | 0.991 | > 1020 | 0.988 | > 10000 | 0.621 | 32.4 | 0.916 | > 20000 | 0.978 | > 2000 | 0.991 | > 1280 | 0.167 | 7.97 | – | – | 0.804 | 8060 | 0.517 | 345 |
| D-336MG (glioma, adherent) | – | – | – | – | 0.975 | > 10000 | – | – | 0.962 | > 20000 | 0.98 | > 2000 | 0.906 | > 1280 | – | – | 0.947 | > 10200 | 0.954 | > 20000 | 0.663 | 1010 |
| ES1 (Ewing sarcoma, adherent) | 0.976 | > 16000 | 0.986 | > 1020 | 0.968 | > 10000 | 0.436 | 10.7 | 0.913 | > 20000 | 0.976 | > 2000 | 0.983 | > 1280 | 0.031 | < 4 | – | – | 0.91 | > 20000 | 0.416 | 185 |
| KP-N-YN (neuroblastoma, adherent) | 0.987 | > 16000 | 0.984 | > 1020 | 0.985 | > 10000 | 0.897 | > 256 | 0.982 | > 20000 | 0.982 | > 2000 | 0.979 | > 1280 | – | – | 0.959 | > 10200 | 0.891 | > 20000 | – | – |
| SK-LMS-1 (soft tissue, adherent) | 0.94 | > 16000 | 0.987 | > 1020 | 0.967 | > 10000 | 0.411 | 9.24 | 0.9 | > 20000 | 0.987 | > 2000 | 0.986 | > 1280 | – | – | 0.942 | > 10200 | 0.942 | > 20000 | 0.329 | 107 |

From the supplement of paper PMC4967469
